The list shows a part of the results.

For one assay, the system named is HSkMC. The experiment in a line: cytotoxicity call (relative viability < 0.9). The settings on record: 10 µM.
For another assay, the system named is HepG2. The experiment in a line: cytotoxicity call (relative viability < 0.9). The settings on record: 10 µM.
The next assay concerns S. aureus RN4220. In words: growth inhibition call (relative growth <= 0.2). The note with it: 50 µM.

`NC[C@H]1Cc2ccccc2O1`: the cytotoxicity call in the assay on HSkMC and with HepG2 was “inactive” in each case. Moreover, the growth inhibition call in the assay on S. aureus RN4220 is “inactive”.
With `COc1cccc(S(=O)(=O)N(C)C[C@@H]2OCc3cn(nn3)CCCC(=O)N([C@@H](C)CO)C[C@H]2C)c1`, the cytotoxicity call in the assay on HSkMC and in the assay on HepG2 was “inactive” each time. In the assay with S. aureus RN4220, the growth inhibition call was “inactive”.
`C[C@H]1CCCCO[C@H](CN(C)C(=O)Nc2ccc3c(c2)OCO3)[C@@H](C)CN([C@@H](C)CO)C(=O)c2cc(NC(=O)NC3CCCCC3)ccc2O1`: the cytotoxicity call in the assay on HSkMC and in the assay on HepG2 was “inactive” in each case. Also, the growth inhibition call in the assay on S. aureus RN4220 is “inactive”.
For the molecule `CN(C)CC(=O)N[C@@H]1C=C[C@H](CC(=O)O)O[C@H]1CO`, the cytotoxicity call with HSkMC and in the assay with HepG2 was “inactive” in each case. The growth inhibition call with S. aureus RN4220 is “inactive”.
Take `C[C@H](NC(=O)N(C)C[C@H]1OCc2ccccc2-c2c(n(C)c3ccccc23)C(=O)N([C@H](C)CO)C[C@@H]1C)c1ccccc1`: the cytotoxicity call in the assay with HSkMC and in the assay with HepG2 was “inactive” in each case. Moreover, the growth inhibition call with S. aureus RN4220 is “inactive”.
As for `C[C@H](NC(=O)c1c(N)nn2cccnc12)c1cc2cccc(C#Cc3cnn(C)c3)c2c(=O)n1-c1ccccc1`, the cytotoxicity call in the assay with HSkMC and in the assay on HepG2 was “active” in each case. Besides, the growth inhibition call in the assay on S. aureus RN4220 is “inactive”.
For the molecule `Cc1ccc(S(=O)(=O)Nc2ccc3c(c2)C(=O)N([C@H](C)CO)C[C@H](C)[C@@H](CN(C)C(=O)Nc2ccc(F)cc2)OCCCC[C@@H](C)O3)cc1`, the cytotoxicity call with HSkMC and with HepG2 was “inactive” throughout. Further, the growth inhibition call in the assay on S. aureus RN4220 was “inactive”.
With `O=C(C[C@@H]1C[C@@H]2c3cc(NC(=O)NC4CCCC4)ccc3O[C@@H]2[C@@H](CO)O1)NCc1ccc(-c2ccccc2)cc1`, the cytotoxicity call in the assay on HSkMC and in the assay on HepG2 was “inactive” throughout. Also, the growth inhibition call in the assay on S. aureus RN4220 was “inactive”.
In the case of `C[C@@H]1CCCCO[C@H](CN(C)Cc2ccc(C(F)(F)F)cc2)[C@@H](C)CN([C@H](C)CO)C(=O)c2cc(NC(=O)Nc3ccccc3)ccc2O1`, the cytotoxicity call with HSkMC and in the assay on HepG2 was “inactive” throughout. Moreover, the growth inhibition call in the assay on S. aureus RN4220 was “inactive”.
Regarding `CC(C)(C)[S@](=O)N1Cc2cc(C(=O)NCc3ccncc3)nc(-c3cccc(-c4ccc(C#N)cc4)c3)c2[C@@H]1CCO`, the cytotoxicity call in the assay on HSkMC and in the assay on HepG2 was “inactive” each time. Also, the growth inhibition call in the assay on S. aureus RN4220 was “inactive”.
As to `C[C@H]1CN([C@@H](C)CO)C(=O)c2cccc(NC(=O)CCCCCC(=O)Nc3ccccc3N)c2O[C@@H]1CN(C)C(=O)Nc1cccc2ccccc12`, the cytotoxicity call in the assay on HSkMC and with HepG2 was “inactive” throughout. The growth inhibition call in the assay on S. aureus RN4220 is “inactive”.
Consider `C[C@@H]1CCCCO[C@@H](CN(C)S(=O)(=O)c2ccccc2)[C@@H](C)CN([C@H](C)CO)C(=O)c2cc(NS(=O)(=O)c3cn(C)cn3)ccc2O1`, for which the cytotoxicity call in the assay with HSkMC and in the assay on HepG2 was “inactive” each time. In the assay on S. aureus RN4220, the growth inhibition call was “inactive”.
As for `CC(C)N1C[C@H](C)[C@@H](CN(C)Cc2ccc(Cl)c(Cl)c2)Oc2c(C(=O)Nc3ccncc3)cccc2C1=O`, the cytotoxicity call in the assay with HSkMC and with HepG2 was “inactive” in each case. In the assay on S. aureus RN4220, the growth inhibition call is “inactive”.
Take `O=C(NCCN1CCOCC1)C(=O)NC[C@H]1OCCN1S(=O)(=O)c1ccc(F)cc1`: the cytotoxicity call in the assay with HSkMC and in the assay on HepG2 was “inactive” throughout. Moreover, in the assay on S. aureus RN4220, the growth inhibition call is “inactive”.
Regarding `Cc1ccc2oc3c(c(=O)c2c1)[C@@]1(C(=O)N(Cc2ccccc2F)c2ccccc21)N(Cc1ccco1)C3=O`, the cytotoxicity call in the assay on HSkMC and with HepG2 was “inactive” throughout. In addition, in the assay with S. aureus RN4220, the growth inhibition call was “inactive”.
As for `C[C@H]1CCCCO[C@H](CN(C)S(=O)(=O)c2ccc(Cl)cc2)[C@@H](C)CN([C@@H](C)CO)C(=O)c2cc(NC(=O)CCC(F)(F)F)ccc2O1`, the cytotoxicity call with HSkMC is “inactive”. Further, in the assay with HepG2, the cytotoxicity call was “active”. Further, the growth inhibition call in the assay on S. aureus RN4220 was “inactive”.
For `C[C@@H]1CN([C@@H](C)CO)C(=O)c2cccc(NS(=O)(=O)c3cn(C)cn3)c2O[C@H]1CN(C)Cc1ccccc1`, the cytotoxicity call with HSkMC and in the assay on HepG2 was “inactive” throughout. The growth inhibition call in the assay on S. aureus RN4220 is “inactive”.
With `C[C@@H]1CN([C@@H](C)CO)C(=O)c2cc(NC(=O)Nc3ccc(C(F)(F)F)cc3)ccc2O[C@@H](C)CCCCO[C@@H]1CN(C)S(=O)(=O)c1ccc(Cl)cc1`, the cytotoxicity call with HSkMC and with HepG2 was “inactive” throughout. For the same molecule, the growth inhibition call in the assay with S. aureus RN4220 was “inactive”.
Take `C[C@@H]1CN([C@@H](C)CO)C(=O)c2cccc(NC(=O)c3nc4ccccc4s3)c2O[C@H]1CN(C)Cc1ccc(-c2ccccc2)cc1`: the cytotoxicity call with HSkMC and in the assay with HepG2 was “inactive” each time. The growth inhibition call with S. aureus RN4220 is “inactive”.
With `COc1ccc(NC(=O)Nc2ccc3c(c2)C(=O)N([C@@H](C)CO)C[C@@H](C)[C@@H](CN(C)Cc2ccc(C(=O)Nc4ccccc4N)cc2)O3)cc1`, the cytotoxicity call in the assay with HSkMC and in the assay with HepG2 was “inactive” in each case. Besides, in the assay on S. aureus RN4220, the growth inhibition call is “inactive”.
Turning to `Cc1ccc2ncccc2c1`, the cytotoxicity call in the assay with HSkMC and in the assay on HepG2 was “inactive” each time. For the same molecule, the growth inhibition call in the assay with S. aureus RN4220 is “inactive”.
For `CSc1nc(C)cc(OCCO)n1`, the cytotoxicity call in the assay on HSkMC and in the assay on HepG2 was “inactive” each time. Further, the growth inhibition call with S. aureus RN4220 is “inactive”.
On to `CC(C)NC(=O)Nc1ccc2c(c1)CC(=O)N([C@H](C)CO)C[C@H](C)[C@@H](CN(C)C(=O)NC1CCCCC1)O2`, for which the cytotoxicity call with HSkMC and in the assay on HepG2 was “inactive” throughout. Also, in the assay with S. aureus RN4220, the growth inhibition call was “inactive”.
For the molecule `CCS(=O)(=O)N1CC[C@]2(CC1)CN([C@H](CO)c1[nH]c3cc(ccc3c12)OC)S(=O)(=O)c1cn(cn1)C`, the cytotoxicity call in the assay on HSkMC (human skeletal muscle cells) and with HepG2 was “inactive” in each case. Further, in the assay on S. aureus RN4220, the growth inhibition call was “inactive”.
On to `CC1=C(/C=C/C(C)=C/C=C/C(C)=C/C=C/C=C(C)/C=C/C=C(C)/C=C/C2=C(C)C(=O)[C@@H](O)CC2(C)C)C(C)(C)C[C@H](O)C1=O`, for which the cytotoxicity call in the assay with HSkMC and in the assay with HepG2 was “inactive” in each case. Further, in the assay with S. aureus RN4220, the growth inhibition call was “inactive”.

The values are drawn from the antibiotic and cytotoxicity screens of Wong et al. (2023).
